According to the supplement of paper PMC12423691:
The list shows a part of the results. Binding of human transcription factors and regulators to the viral nucleoprotein by AlphaScreen, crude cell-free proteins, amounts not normalised, one pass. Fold of the Venus control; higher = more signal. No active / inactive call. Single-pass screen; sequences are the whole Swiss-Prot entries looked up by name.

B1: LEF1, Q9UJU2 (protein)
chain: MPQLSGGGGGGGGDPELCATDEMIPFKDEGDPQKEKIFAEISHPEEEGDLADIKSSLVNESEIIPASNGHEVARQAQTSQEPYHDKAREHPDDGKHPDGGLYNKGPSYSSYSGYIMMPNMNNDPYMSNGSLSPPIPRTSNKVPVVQPSHAVHPLTPLITYSDEHFSPGSHPSHIPSDVNSKQGMSRHPPAPDIPTFYPLSPGGVGQITPPLGWQGQPVYPITGGFRQPYPSSLSVDTSMSRFSHHMIPGPPGPHTTGIPHPAIVTPQVKQEHPHTDSDLMHVKPQHEQRKEQEPKRPHIKKPLNAFMLYMKEMRANVVAECTLKESAAINQILGRRWHALSREEQAKYYELARKERQLHMQLYPGWSARDNYGKKKKRKREKLQESASGTGPRMTAAYI
B2: NODAL, Q96S42 (protein)
chain: MHAHCLPFLLHAWWALLQAGAATVATALLRTRGQPSSPSPLAYMLSLYRDPLPRADIIRSLQAEDVAVDGQNWTFAFDFSFLSQQEDLAWAELRLQLSSPVDLPTEGSLAIEIFHQPKPDTEQASDSCLERFQMDLFTVTLSQVTFSLGSMVLEVTRPLSKWLKHPGALEKQMSRVAGECWPRPPTPPATNVLLMLYSNLSQEQRQLGGSTLLWEAESSWRAQEGQLSWEWGKRHRRHHLPDRSQLCRKVKFQVDFNLIGWGSWIIYPKQYNAYRCEGECPNPVGEEFHPTNHAYIQSLLKRYQPHRVPSTCCAPVKTKPLSMLYVDNGRVLLDHHKDMIVEECGCL
B3: MEN1, O00255 (protein)
chain: MGLKAAQKTLFPLRSIDDVVRLFAAELGREEPDLVLLSLVLGFVEHFLAVNRVIPTNVPELTFQPSPAPDPPGGLTYFPVADLSIIAALYARFTAQIRGAVDLSLYPREGGVSSRELVKKVSDVIWNSLSRSYFKDRAHIQSLFSFITGTKLDSSGVAFAVVGACQALGLRDVHLALSEDHAWVVFGPNGEQTAEVTWHGKGNEDRRGQTVNAGVAERSWLYLKGSYMRCDRKMEVAFMVCAINPSIDLHTDSLELLQLQQKLLWLLYDLGHLERYPMALGNLADLEELEPTPGRPDPLTLYHKGIASAKTYYRDEHIYPYMYLAGYHCRNRNVREALQAWADTATVIQDYNYCREDEEIYKEFFEVANDVIPNLLKEAASLLEAGEERPGEQSQGTQSQGSALQDPECFAHLLRFYDGICKWEEGSPTPVLHVGWATFLVQSLGRFEGQVRQKVRIVSREAEAAEAEEPWGEEAREGRRRGPRRESKPEEPPPPKKPALDKGLGTGQGAVSGPPRKPPGTVAGTARGPEGGSTAQVPAPTASPPPEGPVLTFQSEKMKGMKELLVATKINSSAIKLQLTAQSQVQMKKQKVSTPSDYTLSFLKRQRKGL
B4: TBX6, O95947 (protein)
chain: MYHPRELYPSLGAGYRLGPAQPGADSSFPPALAEGYRYPELDTPKLDCFLSGMEAAPRTLAAHPPLPLLPPAMGTEPAPSAPEALHSLPGVSLSLENRELWKEFSSVGTEMIITKAGRRMFPACRVSVTGLDPEARYLFLLDVIPVDGARYRWQGRRWEPSGKAEPRLPDRVYIHPDSPATGAHWMRQPVSFHRVKLTNSTLDPHGHLILHSMHKYQPRIHLVRAAQLCSQHWGGMASFRFPETTFISVTAYQNPQITQLKIAANPFAKGFRENGRNCKRERDARVKRKLRGPEPAATEAYGSGDTPGGPCDSTLGGDIRESDPEQAPAPGEATAAPAPLCGGPSAEAYLLHPAAFHGAPSHLPTRSPSFPEAPDSGRSAPYSAAFLELPHGSGGSGYPAAPPAVPFAPHFLQGGPFPLPYTAPGGYLDVGSKPMY
B5: HOXC13, P31276 (protein)
chain: MTTSLLLHPRWPESLMYVYEDSAAESGIGGGGGGGGGGTGGAGGGCSGASPGKAPSMDGLGSSCPASHCRDLLPHPVLGRPPAPLGAPQGAVYTDIPAPEAARQCAPPPAPPTSSSATLGYGYPFGGSYYGCRLSHNVNLQQKPCAYHPGDKYPEPSGALPGDDLSSRAKEFAFYPSFASSYQAMPGYLDVSVVPGISGHPEPRHDALIPVEGYQHWALSNGWDSQVYCSKEQSQSAHLWKSPFPDVVPLQPEVSSYRRGRKKRVPYTKVQLKELEKEYAASKFITKEKRRRISATTNLSERQVTIWFQNRRVKEKKVVSKSKAPHLHST
B6: UHRF1, Q96T88 (protein)
chain: MWIQVRTMDGRQTHTVDSLSRLTKVEELRRKIQELFHVEPGLQRLFYRGKQMEDGHTLFDYEVRLNDTIQLLVRQSLVLPHSTKERDSELSDTDSGCCLGQSESDKSSTHGEAAAETDSRPADEDMWDETELGLYKVNEYVDARDTNMGAWFEAQVVRVTRKAPSRDEPCSSTSRPALEEDVIYHVKYDDYPENGVVQMNSRDVRARARTIIKWQDLEVGQVVMLNYNPDNPKERGFWYDAEISRKRETRTARELYANVVLGDDSLNDCRIIFVDEVFKIERPGEGSPMVDNPMRRKSGPSCKHCKDDVNRLCRVCACHLCGGRQDPDKQLMCDECDMAFHIYCLDPPLSSVPSEDEWYCPECRNDASEVVLAGERLRESKKKAKMASATSSSQRDWGKGMACVGRTKECTIVPSNHYGPIPGIPVGTMWRFRVQVSESGVHRPHVAGIHGRSNDGAYSLVLAGGYEDDVDHGNFFTYTGSGGRDLSGNKRTAEQSCDQKLTNTNRALALNCFAPINDQEGAEAKDWRSGKPVRVVRNVKGGKNSKYAPAEGNRYDGIYKVVKYWPEKGKSGFLVWRYLLRRDDDEPGPWTKEGKDRIKKLGLTMQYPEGYLEALANREREKENSKREEEEQQEGGFASPRTGKGKWKRKSAGGGPSRAGSPRRTSKKTKVEPYSLTAQQSSLIREDKSNAKLWNEVLASLKDRPASGSPFQLFLSKVEETFQCICCQELVFRPITTVCQHNVCKDCLDRSFRAQVFSCPACRYDLGRSYAMQVNQPLQTVLNQLFPGYGNGR
B7: CLOCK, O15516 (protein)
chain: MLFTVSCSKMSSIVDRDDSSIFDGLVEEDDKDKAKRVSRNKSEKKRRDQFNVLIKELGSMLPGNARKMDKSTVLQKSIDFLRKHKEITAQSDASEIRQDWKPTFLSNEEFTQLMLEALDGFFLAIMTDGSIIYVSESVTSLLEHLPSDLVDQSIFNFIPEGEHSEVYKILSTHLLESDSLTPEYLKSKNQLEFCCHMLRGTIDPKEPSTYEYVKFIGNFKSLNSVSSSAHNGFEGTIQRTHRPSYEDRVCFVATVRLATPQFIKEMCTVEEPNEEFTSRHSLEWKFLFLDHRAPPIIGYLPFEVLGTSGYDYYHVDDLENLAKCHEHLMQYGKGKSCYYRFLTKGQQWIWLQTHYYITYHQWNSRPEFIVCTHTVVSYAEVRAERRRELGIEESLPETAADKSQDSGSDNRINTVSLKEALERFDHSPTPSASSRSSRKSSHTAVSDPSSTPTKIPTDTSTPPRQHLPAHEKMVQRRSSFSSQSINSQSVGSSLTQPVMSQATNLPIPQGMSQFQFSAQLGAMQHLKDQLEQRTRMIEANIHRQQEELRKIQEQLQMVHGQGLQMFLQQSNPGLNFGSVQLSSGNSSNIQQLAPINMQGQVVPTNQIQSGMNTGHIGTTQHMIQQQTLQSTSTQSQQNVLSGHSQQTSLPSQTQSTLTAPLYNTMVISQPAAGSMVQIPSSMPQNSTQSAAVTTFTQDRQIRFSQGQQLVTKLVTAPVACGAVMVPSTMLMGQVVTAYPTFATQQQQSQTLSVTQQQQQQSSQEQQLTSVQQPSQAQLTQPPQQFLQTSRLLHGNPSTQLILSAAFPLQQSTFPQSHHQQHQSQQQQQLSRHRTDSLPDPSKVQPQ

Target: nucleoprotein N of Crimean-Congo hemorrhagic fever virus
Test: AlphaScreen luminescence signal relative to Venus negative control (fold); higher = stronger binding to CCHFV N
Method: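 AlphaScreen binding of cell-free made, FLAG-GST-tagged human transcription factors and regulators (crude translation products) to biotinylated N protein; signal as fold of the FLAG-GST-Venus control. One pass.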

Binder	AlphaScreen luminescence signal
B1	3.49
B2	1.72
B3	2.33
B4	3.77
B5	1.86
B6	13.1
B7	2.65
